Experimental data: paper PMC4336329 (PLoS ONE, 2015)
Hit rate of the full screen: of about 310,000 compounds, about 14,000 (4.5%) showed an effect of 50% or more. Effects have a minus sign here. This is one part of the list.

Target: human ether-à-go-go-related gene (hERG) potassium channel (human, UniProt Q12809)
Assay: primary screen, population patch clamp on CHO cells stably expressing hERG
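Also: peak tail current of the secondary pulse compared with the same well before compound.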

Chain of human ether-à-go-go-related gene (hERG) potassium channel (Q12809 whole entry, looked up): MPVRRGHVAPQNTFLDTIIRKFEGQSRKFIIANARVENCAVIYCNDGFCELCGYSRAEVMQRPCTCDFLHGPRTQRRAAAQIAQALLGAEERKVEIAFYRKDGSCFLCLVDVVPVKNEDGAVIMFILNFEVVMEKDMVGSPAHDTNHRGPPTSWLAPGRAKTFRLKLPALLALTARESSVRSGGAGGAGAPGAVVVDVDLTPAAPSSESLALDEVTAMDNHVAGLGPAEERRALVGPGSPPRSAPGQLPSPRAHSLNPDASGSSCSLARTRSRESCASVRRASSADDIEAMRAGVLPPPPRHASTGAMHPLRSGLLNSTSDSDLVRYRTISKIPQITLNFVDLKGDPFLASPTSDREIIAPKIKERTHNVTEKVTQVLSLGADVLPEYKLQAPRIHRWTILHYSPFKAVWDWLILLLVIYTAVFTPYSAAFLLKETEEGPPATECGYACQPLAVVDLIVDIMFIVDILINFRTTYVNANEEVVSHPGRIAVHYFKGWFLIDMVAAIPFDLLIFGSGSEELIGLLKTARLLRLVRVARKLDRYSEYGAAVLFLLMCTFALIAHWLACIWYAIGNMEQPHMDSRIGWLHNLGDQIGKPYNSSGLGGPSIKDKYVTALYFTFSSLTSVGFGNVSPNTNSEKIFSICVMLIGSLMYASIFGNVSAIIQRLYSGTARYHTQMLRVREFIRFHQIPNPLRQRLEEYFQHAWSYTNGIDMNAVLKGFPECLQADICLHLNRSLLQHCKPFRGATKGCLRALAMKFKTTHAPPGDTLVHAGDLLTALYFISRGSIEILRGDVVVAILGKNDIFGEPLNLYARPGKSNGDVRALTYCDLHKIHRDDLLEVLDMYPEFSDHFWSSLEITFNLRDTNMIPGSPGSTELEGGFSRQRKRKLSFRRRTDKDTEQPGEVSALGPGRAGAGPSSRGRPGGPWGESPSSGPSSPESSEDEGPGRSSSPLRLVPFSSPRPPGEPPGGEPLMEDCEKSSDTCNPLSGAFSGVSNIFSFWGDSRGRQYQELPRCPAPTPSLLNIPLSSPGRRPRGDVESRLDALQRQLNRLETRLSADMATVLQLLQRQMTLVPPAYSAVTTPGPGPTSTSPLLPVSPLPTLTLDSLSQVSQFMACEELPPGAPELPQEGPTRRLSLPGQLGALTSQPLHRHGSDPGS

Row | Structure (SMILES) | hERG current change (%, negative = inhibition) at 10uM [%]
1 | O=C1C2C3C=CC(CC3)C2C(=O)N1c1ccccc1[N+](=O)[O-] (stereo not drawn) | 12.8
2 | O=C(CC(=O)Nc1cc(Cl)ccc1Cl)Nc1cc(Cl)ccc1Cl | 25.4
3 | Cc1cc(F)ccc1NCc1cc2c(cc1[N+](=O)[O-])OCO2.O=C(O)C(=O)O | 7.77
4 | CNc1nc(N)c(C(=O)C23CC4CC(CC(C4)C2)C3)s1 | 7.78
5 | Cc1ccc(-n2nc(C)cc2NC(=O)c2ccc(C)s2)cc1 | 13.9
6 | CCOC(=O)c1c(NC(=O)C2C3C=CC(C3)C2C(=O)O)sc2c1CC(C)(C)OC2 (stereo not drawn) | 2.84
7 | CCCCc1ccc(NC(=O)C2CCCC2)cc1 | 4.28
8 | COC(=O)c1ccc(Cl)c(NC(=O)CN(c2ccccc2)S(=O)(=O)c2ccc(OC)cc2)c1 | -11.5
9 | Cc1ccc2cc(/C=N/NC(=O)[C@H]3C[C@@H]3c3ccccc3)c(Cl)nc2c1 | 14.1
10 | Cc1ccc(-c2nnn(CC(=O)O)n2)cc1 | -1.55
11 | COc1cc(NC(=O)c2n[nH]c(=O)c3ccccc23)cc(OC)c1 | 9
12 | CCC(=O)C(CCN1CCOCC1)(c1ccccc1)c1ccccc1 | -16.5
13 | Cc1ccc(NC(=O)C(C)OC(=O)COc2cccc(C(F)(F)F)c2)cc1 (stereo not drawn) | 10.4
14 | CCOc1ccc(C(=O)CCCC(=O)c2ccc(OCC)cc2)cc1 | 13.2
15 | CCCn1cnc2scc(-c3ccc(C)cc3)c2c1=O | -21.9
16 | CCCNC(=O)Nc1cc(C)on1 | 10.9
17 | CCOC(=O)c1cnc(-n2[nH]c(C)c(Cc3ccccc3)c2=O)[nH]c1=O | 2.11
18 | CC(C)N(Cc1ccccc1)C(=O)COc1ccccc1 | 6.09
19 | C=CCSc1nc2c(c(C3CC=CCC3)c1C#N)CCC2 (stereo not drawn) | -8.57

Row | Structure (SMILES) | hERG current change (%, negative = inhibition) at 10uM [%]
20 | Cc1csc(NC(=O)C2CCN(S(=O)(=O)c3cccs3)CC2)n1 | -27.3
21 | COc1ccc(N(CC(=O)N2CCN(c3ccccc3F)CC2)S(=O)(=O)c2c(C)noc2C)cc1 | 16
22 | COc1ccccc1OCCNC(=O)C(=O)c1c[nH]c2ccccc12 | 5.02
23 | CCC(=O)Nc1nnc(Cc2ccccc2)s1 | 2.13
24 | COc1ccccc1-c1cc(-c2ccccc2)nc(SC(C(N)=O)c2ccccc2)c1C#N (stereo not drawn) | 15.3
25 | CCCC(=O)Nc1ccc(C(=O)O)cc1NC(=O)CCC | 8.09
26 | Cc1nnc(Sc2c(-c3ccccc3)c3ccc(Cl)cc3[nH]c2=O)s1 | -21.4
27 | COC(=O)C(CC(=O)c1ccc(C)cc1)n1cccn1 (stereo not drawn) | 12.9
28 | C=CCN1C(=O)NC2(O)C(=O)c3ccccc3C12O (stereo not drawn) | 7.55
29 | Cc1ccc(-n2c(-c3ccco3)nc3nc4ccccc4nc32)cc1F | 4.17
30 | O=c1[nH]c(CSc2ncnc3sccc23)nc2ccccc12 | 1.46
31 | COc1cn(-c2ccccc2)nc1C(=O)NCc1ccccc1 | -24.9
32 | COc1ccc(-c2csc(NC(=O)CCCc3cccs3)n2)cc1 | 14.9
33 | C#CCOc1ccccc1CNc1ccccc1 | 9.01
34 | Cc1ccc(C)c(N2CCN(C(=O)c3cc4sccc4n3C)CC2)c1 | 4.68
35 | COc1ccc2nc(C)cc(SCC(=O)Nc3c(C)cccc3C)c2c1 | -2.19
36 | Cc1ccc2c(c1)N(CC(=O)N1CCCCC1)C(=O)CO2 | -4.93
37 | CC(C)c1cccc(C(C)C)c1NC(=O)COc1nncc2ccccc12 | 21
38 | Fc1ccc(C(c2nnnn2Cc2cccs2)N2CCN(c3ccccc3)CC2)cc1 (stereo not drawn) | -21.3

Row | Structure (SMILES) | hERG current change (%, negative = inhibition) at 10uM [%]
39 | Cc1ccc(CNC(=O)c2cc(-c3ccccc3)nn2CC2CC(c3cccc([N+](=O)[O-])c3)=NO2)cc1 (stereo not drawn) | -8.09
40 | CCC(C)[C@H]1COCCS(=O)(=O)N1Cc1ccc(C)cc1 (stereo partly drawn) | -13
41 | Cc1cc(=O)[nH]c(SCC(=O)OCc2ccccc2)c1C#N | 14
42 | CCN1CCN(Cc2c3ccccc3cc3ccccc23)CC1 | 9.14
43 | Cc1cccc(-n2ccc(=O)c(C(=O)Nc3ccc(S(=O)(=O)N4CCOCC4)cc3)n2)c1 | -2.52
44 | COC(=O)c1c[nH]n2c(=O)c(C(C)C)c(C)nc12 | 16.9
45 | COCc1[nH][nH]c(=O)c1C=Nc1ccc(OC(F)(F)F)cc1 | -46.4
46 | CCOC(=O)c1ccccc1NC(=O)c1ccc2c(SCC(=O)O)c3c(nc2c1)CCCC3 | 5.98
47 | CC(C)COc1ncnc2c1sc1nc3c(cc12)COC(C)(C)C3 | -4.22
48 | COc1ccc(CCC(=O)N2CC(C)OC(C)C2)cc1 (stereo not drawn) | 5.02
49 | CC(=O)c1ccc(S(=O)(=O)N2CCC3(CC2)CC(=O)c2ccccc2O3)cc1 | -42.6
50 | COc1cc(/C=N/N=C2/NC(=O)C(CC(=O)O)S2)ccc1OCc1cccc(Cl)c1 (stereo not drawn) | 24.7
51 | O=C(Cn1nc(-c2ccccc2)ccc1=O)Nc1ccc(-n2cnnn2)cc1 | -14.8
52 | COc1ccc(OC)c(CC(NC(C)=O)C(=O)NC2CCN(S(=O)(=O)c3ccc(NC(C)=O)cc3)CC2)c1 (stereo not drawn) | -8.43
53 | CC(=O)c1cccc(NC(=O)c2ccc(S(=O)(=O)N3CC(C)OC(C)C3)cc2)c1 (stereo not drawn) | 6.36
54 | CCCCn1c(N)c(N(CCOC)C(=O)COC(=O)/C=C/c2ccc(Br)cc2)c(=O)[nH]c1=O | -3.06
55 | Cc1nc(NNC(=O)c2ccc(Cl)cc2Cl)cc(-c2ccccc2)n1 | 6.97
56 | COCCNC(=S)N(C)C1(c2ccccc2Cl)CCCCC1=O (stereo not drawn) | 38.3
57 | Cc1ccc(C)n1-n1cnc2sc3c(c2c1=O)CCC3 | -7.03
